# Laboratory results published in publication PMC4336329 (PLoS ONE, 2015).
# Hit rate of the full screen: of about 310,000 compounds, about 14,000 (4.5%) showed an effect of 50% or more. The effect is printed as a negative number. This is one part of the list.
# Target: human ether-à-go-go-related gene (hERG) potassium channel (human, UniProt Q12809)
# Test: primary screen, population patch clamp on CHO cells stably expressing hERG
# 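Further: peak tail current of the secondary pulse compared with the same well before compound.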
# Chain of human ether-à-go-go-related gene (hERG) potassium channel (Q12809 whole entry, looked up): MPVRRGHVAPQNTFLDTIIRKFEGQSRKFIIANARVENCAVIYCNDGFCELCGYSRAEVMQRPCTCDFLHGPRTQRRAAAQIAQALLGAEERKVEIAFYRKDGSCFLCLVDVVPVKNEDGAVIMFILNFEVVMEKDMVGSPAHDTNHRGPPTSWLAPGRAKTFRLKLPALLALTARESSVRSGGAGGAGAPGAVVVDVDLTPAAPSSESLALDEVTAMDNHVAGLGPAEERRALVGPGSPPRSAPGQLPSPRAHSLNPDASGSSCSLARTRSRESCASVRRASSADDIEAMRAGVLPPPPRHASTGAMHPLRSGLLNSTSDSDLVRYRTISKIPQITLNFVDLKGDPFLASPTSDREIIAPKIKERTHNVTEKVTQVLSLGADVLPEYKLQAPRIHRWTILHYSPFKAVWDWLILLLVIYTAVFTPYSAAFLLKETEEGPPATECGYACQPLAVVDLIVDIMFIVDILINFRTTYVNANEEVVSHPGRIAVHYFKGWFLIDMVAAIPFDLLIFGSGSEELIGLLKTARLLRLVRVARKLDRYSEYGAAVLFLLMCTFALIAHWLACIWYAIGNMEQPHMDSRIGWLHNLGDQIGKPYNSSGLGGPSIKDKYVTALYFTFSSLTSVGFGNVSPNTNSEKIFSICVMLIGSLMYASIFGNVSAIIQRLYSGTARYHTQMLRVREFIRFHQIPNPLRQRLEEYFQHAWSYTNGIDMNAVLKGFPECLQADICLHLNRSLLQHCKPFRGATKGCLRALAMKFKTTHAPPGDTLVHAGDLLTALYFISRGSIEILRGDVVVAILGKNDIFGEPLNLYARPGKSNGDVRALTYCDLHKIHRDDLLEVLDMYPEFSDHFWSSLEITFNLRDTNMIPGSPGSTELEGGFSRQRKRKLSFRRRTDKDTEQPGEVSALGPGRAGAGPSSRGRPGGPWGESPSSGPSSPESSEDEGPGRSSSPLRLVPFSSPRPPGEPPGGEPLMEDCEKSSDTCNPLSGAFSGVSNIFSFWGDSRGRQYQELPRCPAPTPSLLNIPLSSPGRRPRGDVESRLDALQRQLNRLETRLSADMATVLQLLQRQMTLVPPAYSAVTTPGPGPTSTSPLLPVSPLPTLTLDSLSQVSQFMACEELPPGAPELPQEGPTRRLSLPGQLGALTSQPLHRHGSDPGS
row,Compound,"hERG current change (%, negative = inhibition) at 10uM [%]"
1,Cc1ccc(C2N(c3cc(C)on3)C(=O)C3CCCN32)cc1 (stereo not drawn),8.51
2,Cc1cccc2nc3ccccc3cc12,-1.16
3,O=C(Cc1ccc(F)cc1)Nc1ccc2[nH]ncc2c1,18.6
4,C=CCOc1cccc(C2/C(=C(\O)c3ccc4c(c3)OCCO4)C(=O)C(=O)N2CCN2CCOCC2)c1 (stereo not drawn),-13.1
5,CN(C)CCNCCCOc1ccccc1-c1ccccc1.O=C(O)C(=O)O,-20.7
6,Cc1cc(C(F)F)nn1CC(=O)NCc1ccccc1F,0.0703
7,Cc1ccc(C)c(S(=O)(=O)N2CCN(CC(=O)Nc3ccc4c(c3)OCCO4)CC2)c1,-13.9
8,O=C(Nc1ccc(-c2cn3ccsc3n2)cc1)C1CCCC1,9.55
9,CCOc1cc(C2C(C(=O)OCC(C)C)=C(C)N=C3SCCC(=O)N32)ccc1OC(C)=O (stereo not drawn),-11.2
10,CCCCNc1nc(-c2ccccc2)cc(C(F)(F)F)c1C(N)=O,13.5
11,CCOC(=O)N1CCC(NC(=O)Cn2ncc3c2-c2cc(C)ccc2OC3)CC1,-1.52
12,CCCn1cnc2c(cnn2-c2ccc(F)cc2)c1=O,-5.26
13,Cc1ccc(C2N(c3cccc(Cl)c3)C(=O)N3CCCN23)cc1 (stereo not drawn),-12
14,COc1ccc(-c2nnc(NC(=O)CSc3ccccc3)s2)cc1OC,12.2
15,CC1CCN(Cc2nnnn2-c2ccc(Cl)cc2)CC1,-4.53
16,CCOC(=O)C1CCCCN1C(=O)CCc1nnc(-c2ccc3c(c2)OCO3)o1 (stereo not drawn),8.84
17,Cc1ccsc1/C=N\NC(=O)Cn1nnc2ccccc21,5.64
18,COc1cccc(N(C(=O)c2ccco2)c2nc(-c3sc(NC(=O)c4ccco4)nc3C)cs2)c1,29.4
19,O=c1cc(CSc2ccccn2)[nH]c(=O)[nH]1,3.76

row,Compound,"hERG current change (%, negative = inhibition) at 10uM [%]"
1,COc1ccccc1CCC(=O)Nc1nc2ccccc2[nH]1,15.7
2,CCCOP(=O)(c1ccc(N(C)C)cc1)C(O)c1c(Cl)cccc1Cl (stereo not drawn),0.712
3,Cc1ccc2c(Cl)c(C)c(N3CCCC3)nc2n1,-2.23
4,CCN1CCN(c2cc3c(cc2F)c(=O)c(S(=O)(=O)c2ccccc2)cn3C)CC1,-19
5,O=C(CN1C(=O)S/C(=C\c2ccc(-c3cc(C(=O)O)ccc3Cl)o2)C1=O)Nc1ccc2c(c1)OCO2,9.81
6,O=C(NCC1CCCO1)c1ccc(N2CCCCC2)c([N+](=O)[O-])c1 (stereo not drawn),-35.3
7,Cn1cc(CN2CCC(n3nccc3NC(=O)C3CCCC3)CC2)cn1,12.6
8,CCOC(=O)c1cnn(-c2ccccc2)c1NC(=O)c1cccs1,-5.91
9,COc1ccc(-n2c(SCC(=O)Nc3cccc(C(=O)O)c3)nnc2-c2ccco2)cc1,17.7
10,COc1ccc(Br)cc1CN(C)CC(=O)Nc1c(Cl)cccc1Cl,-3.2
11,O=c1c2ccccc2nc(/C=C/c2ccc(F)cc2)n1-c1ccccc1O,2.07
12,COc1cc(NC(=O)C(F)(F)F)cc(OC)c1,-8.82
13,Cc1cc(N)c(NC2=CC(=O)CC(C)(C)C2)cc1C,7.28
14,CCOC(=O)C(=O)N1CCN(CC)CC1,17.5
15,CCn1cc(CN(C)C(=O)/C=C/c2ccc([N+](=O)[O-])cc2)c(C)n1,-59.4
16,CC1CN(C(=O)/C=C/c2ccccc2[N+](=O)[O-])CC(C)O1 (stereo not drawn),-4.44
17,COc1cccc(NC(=S)NNC(=O)c2c([N+](=O)[O-])c(C)nn2C)c1,17.3
18,CS(=O)(=O)Nc1ccc2c(c1)ncn2CCc1ccccc1,-26.4
19,Cc1c(N)cccc1[N+](=O)[O-],17.7

row,Compound,"hERG current change (%, negative = inhibition) at 10uM [%]"
1,CC(=O)c1ccc(NC(=O)C(C)Nc2ccc(Cl)cc2)cc1 (stereo not drawn),-4.45
2,Cc1c(Cl)cccc1NC(=O)CN(C1CCCCC1)S(C)(=O)=O,10.7
3,COc1ccc(-c2[nH]ncc2/C=C(/C#N)C(=O)NC2CCCCCC2)cc1,-1.72
4,NS(=O)(=O)c1cccc(NC(=O)CCSc2ccccc2Cl)c1,-0.609
5,CCCNC(=O)CN(Cc1ccccc1F)S(=O)(=O)c1ccc(C)cc1,-6.17
6,COc1ccc(/C=C2\SC(=Nc3ccccc3OC)NC2=O)cc1,8.4
7,Cc1ccc2c(c1)C1C=CCC1C(C(=O)O)N2 (stereo not drawn),1.68
8,CCOCC(=O)Nc1nc2ccc(OCC)cc2s1,9.9
9,NC(=O)C1CC(O)CN1c1nc(CN2CCOCC2)nc2scc(-c3ccccc3)c12 (stereo not drawn),-6.13
10,CS(=O)(=O)C1=NN2C(=N)/C(=C\c3ccc(OC(=O)c4ccco4)cc3)C(=O)N=C2S1,8.77
11,O=C(Nc1cc(S(=O)(=O)N2CCCC2)ccc1OCC(F)(F)F)c1ccc(F)cc1,2.57
12,COc1ccc(Cn2cnc3c4cc(F)ccc4n(C)c3c2=O)cc1,9.87
13,Cc1c(CC(=O)NCC(=O)NCC(=O)O)c(=O)oc2cc3oc4c(c3cc12)CCCC4,8.31
14,Cc1ccc(N2CC(C(=O)Nc3ccc(S(=O)(=O)Nc4ncccn4)cc3)CC2=O)cc1C (stereo not drawn),14.6
15,O=C(NCC1(c2ccccc2)CCCC1)C1(c2ccccc2)CCCC1,-11.4
16,Cc1sc2ncnc(NCCc3ccc(S(N)(=O)=O)cc3)c2c1C,12.6
17,CC(C)OC(=O)CC12CN3CC(CC(=O)OC(C)C)(CN(C1)C(=O)c1ccccc1C3=O)C2=O,5.46
18,N=C1SCC(=O)N1c1nc(-c2ccccc2)cs1,13
19,CCCC(=O)N(Cc1cc2cccc(C)c2[nH]c1=O)c1ccccc1OC,-3.78
